Measured values taken from PubChem BioAssay AID504467 (National Center for Advancing Translational Sciences (NCATS), 2011).
The whole screen tested about 330,000 compounds, of which about 7,700 (2.3%) were called active. Inconclusive results (about 26%) are left out. Calls follow the shape of the dose curve; as a rule, active = well fitted inhibition curve with a large enough effect; inconclusive = small, poorly fitted or top-dose-only effect, or effect the other way; inactive = flat fitted curve, though single readings scatter. The list shows a part of the results, in another mix than the full data.

Test: qHTS screen for small molecules that inhibit ELG1-dependent DNA repair in human embryonic kidney (HEK293T) cells expressing luciferase-tagged ELG1; also: nearly all actives have a fitted effect of over 55% in size
Details: HEK293T ELG1-luciferase reporter, luminescence, 16 h, DNA damage induced by 5-fluorouridine; series mostly up to 46.1 µM; activity change, negative = inhibition: at the top concentration
From the text: NIH Molecular Libraries Probe Production Network [MLPCN] NIH Chemical Genomics Center [NCGC] MLPCN Grant: 1 R03 MH092164-01 Assay Provider: Kyungjae Myung, NHGRI, NIH Keywords: MLPCN, qHTS, NCGC, genotoxicity, cancer Assay Overview: Cancer cells divide rapidly compared to normal cells in the body. During cell division, cancer cells need to duplicate their genome by DNA replication. The failure of genome duplication leads to cancer cells' death. Therefore, inhibitors of DNA replication could specifically kill cancer cells. Based on this concept, many chemotherapeutic agents were developed and have been used to treat cancer patients. However, there are a limited number of agents available in the clinical setting, and some of those that do exist have low efficacy and severe side effects. Therefore, if we can find the compounds that effectively block DNA replication either by directly damaging DNA or by inhibiting other cellular mechanisms, the options for cancer treatment will be broadened. With this in mind, we developed a quantitative high-throughput ELG1-luciferase reporter gene assay. Small molecules that specifically block ELG1 function in response to DNA damage can be identified by monitoring the suppression of luciferase activity. Since ELG1 defines a pathway for repairing DNA damage, agents blocking ELG1 function can be used to sensitize cancer cells to chemotherapeutic agents whose mechanism of action involves the induction of DNA damage.
Assay Protocol Summary: For genotoxicity screening, 2,000 cells in 4 uL/well were dispensed into white, solid-bottom 1536-well plates using a solenoid-based dispenser. Following transfer of 1 uL 5-Fluorouridine and 23 nL compound or DMSO vehicle by a pin tool, the plates were incubated 16 hr at 37 °C and 5% CO2. 5 ul ONE-Glo (Promega) was then added to each plate and following a 30 min incubation at room temperature, luciferase activity was quantified on a ViewLux CCD-based plate reader.
% is scaled to controls: 0 for no effect and ±100 for the full control effect; potency is read from the fitted curve at half-maximal effect.

Compound | activity change, negative = inhibition | Potency
C[C@@H]1CN([C@H](C)CO)C(=O)c2cccc(NC(=O)NC3CCCCC3)c2O[C@@H]1CN(C)C(=O)Nc1ccc(C(F)(F)F)cc1 | inactive: -21.9% | 
Cn1c(=O)c2c(nc(NCc3ccc4c(c3)OCO4)n2Cc2ccccc2)n(C)c1=O |  | active: 16.4 µM
COC(=O)[C@H](C)[C@@H]1C[C@@]1(C)[C@@H](NC(=O)OCc1ccccc1)c1ccccc1 | inactive: 1.28% | 
CC1C(=O)N(Cc2ccccc2)c2ccccc2N1C(=O)c1ccccc1 (centres undefined) |  | active: 25.9 µM
C[C@H](NC(=O)c1nc[nH]c1C(=O)N1CCN(C(=O)OC(C)(C)C)CC1)c1ccccc1 | inactive: 0% | 
CC(C)(C)NC(=O)/C(=C\c1cccnc1)NC(=O)c1ccco1 | inactive: 3.75% | 
Cc1cn(C2C=CC(CO)O2)c(=O)[nH]c1=O (centres undefined) | inactive: 23.5% | 
O=C(Nc1cccc(NC(=O)c2ccco2)c1)c1ccc([N+](=O)[O-])cc1 |  | active: 11.6 µM
O=c1cc(-c2ccc(O)cc2)oc2cc(O)c([C@@H]3O[C@H](CO)[C@@H](O)[C@H](O)[C@H]3O)c(O)c12 | inactive: 12.5% | 
CCOc1ccc(CN(C)CC(=O)Nc2ccc3c(c2)CCC3)cc1OC |  | active: 16.4 µM
CN(c1ccccc1)S(=O)(=O)c1cccc(NC(=O)C2=NN(c3ccccc3)C(=O)CC2)c1 |  | active: 7.3 µM
CCOc1ccc(C(C)=O)cc1COC(=O)c1ccc2c(c1)NC(=O)CS2 |  | active: 16.4 µM
Cc1c(C(=O)N2CCN(c3ccc([N+](=O)[O-])cc3)CC2)oc2ccccc12 |  | active: 11.2 µM
C=CCC[C@H](Cc1ccc(F)cc1)C(=O)OC[C@@H](C)NC(=O)[C@@H](CC=C)CC(=O)N[C@H](CO)Cc1ccccc1 | inactive: -9.41% | 
CCO/C([O-])=N/c1c[n+](N2CCOCC2)no1 |  | inactive
Cc1cc(C)c[n+](C2=C([O-])c3ccccc3C(=O)/C2=N\S(=O)(=O)c2cccs2)c1 |  | active: 11.6 µM
O=C(C1=C[C@H](c2coc3ccccc3c2=O)C[C@H](OCc2ccc(CO)cc2)O1)N1CCN(Cc2ccccc2)CC1 | inactive: -0.599% | 
NS(=O)(=O)c1ccc(CCNc2nc(C(F)(F)F)nc3ccccc23)cc1 |  | active: 11.6 µM
O=C(CCCN1C(=O)/C(=C/c2cccs2)SC1=S)Nc1ccccn1 | inactive: -18.9% | 
Cc1ccc(S(=O)(=O)N2C[C@@H]3[C@H]4CC[C@H](C4)[C@@H]3[C@@H](C)[C@H]2c2ccco2)cc1 | inactive: -6.55% | 

Compound | activity change, negative = inhibition | Potency
CCCCCCCCCCOC(=O)Cn1c(COc2ccc(OC)cc2)[n+](C)c2ccccc21 | inactive: -1.2% | 
O=C(O)C1=C[C@H](c2coc3ccccc3c2=O)C[C@H](OCCCCO)O1 | inactive: 6.82% | 
CC(C)Cn1c(N)c(C(=O)COC(=O)c2cc(C3CC3)nc3ccccc23)c(=O)n(C)c1=O |  | active: 23.1 µM
Cc1ccc(C(=O)Nc2ccc(C)c(S(=O)(=O)Nc3ccccc3Cl)c2)s1 |  | active: 20.6 µM
C=CC[C@H](CC(=O)NCCO)C(=O)N[C@@H](COC(=O)[C@@H](CC=C)CC(=O)OC(C)(C)C)Cc1c[nH]c2ccccc12 | inactive: -3.33% | 
COC(=O)N1C(=O)[C@](Cc2ccccc2)(c2ccccc2)N1C(=O)OC | inactive: 0% | 
CCCCOC(=O)C1CCC[C@@H](C)N1 (some centres undefined) | inactive: 20.7% | 
CCOC(=O)N1CC=C2C(C#N)=C(N)C(C#N)(C#N)[C@H](c3cccs3)[C@H]2C1 | inactive: 0% | 
CCOC(=O)c1c(NC(=O)c2cccs2)sc2c1CC(C)(C)OC2 |  | active: 9.2 µM
O=C1OC[C@@H]2CCCN2C(=O)[C@@H](CC(=O)N(CCO)Cc2ccccc2)C/C=C\CC[C@H]1Cc1ccc(F)cc1 | inactive: -22.9% | 
C[C@H](NC(=O)c1nc[nH]c1C(=O)NCC(=O)OC(C)(C)C)c1ccccc1 | inactive: -5.77% | 
Cc1ccc(C(=O)N/C(=C/c2ccccc2)C(=O)NCC2CCCO2)cc1 (centres undefined) | inactive: 2.86% | 
CC1=NN(c2ccccc2)C(=O)/C1=C/c1cn(C)c2ccccc12 | inactive: -14.9% | 
CCOC(=O)[C@@H]1[C@H]2COc3ccccc3[C@@H]2N2C(=O)N(c3cccc(C)c3)C(=O)[C@@]12C | inactive: 17.9% | 
COc1cc2nc(N3CCN(C(=O)[C@@H]4CCCO4)CC3)nc(N)c2cc1OC | inactive: -7.14% | 
CC1(C)Oc2ccc3ccc(=O)oc3c2[C@H](O)[C@H]1O | inactive: 28.3% | 
O=C1NCC(O)=C1C=NC12CC3CC(CC(C3)C1)C2 | inactive: 2.26% | 
COc1ccc(Br)cc1/C=C/C(=O)Nc1ccc(C)cc1 |  | active: 20.6 µM
CNC[C@H]1Oc2c(NS(=O)(=O)c3ccc(OC)cc3)cccc2C(=O)N([C@H](C)CO)C[C@@H]1C | inactive: 4.95% | 
